Among all 340,000 compounds or so, about 12,000 (3.5%) were called active. The inconclusive results got no clear call from the source; some entries with a clear call stand among them for comparison. The call rests on the fitted dose curve; in most records, active means well fitted inhibition curve with a large enough effect; inconclusive means small, poorly fitted or top-dose-only effect, or another doubt; inactive means no such curve, though single readings can be large or run the other way. No potency is given beside an inconclusive call; the fits are too rough.
Experiment: qHTS Assay for Inhibitors of Hepatitis C Virus (HCV)
Settings: Huh7.5.1 HCVcc-Cre (HCVcc is cell-culture hepatitis C virus) infection, luciferase reporter, 44 h; activity change, negative = inhibition: at 41.8 µM (top of the series) unless noted
Summary of the method: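 Antiviral activity was scored by luciferase reporter output from cells infected with HCVcc-Cre (~0.5 moi) in presence of compound, 44 h infection period, cells seeded 1,000/well 4 h prior.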
On the % scale 0 is the no-effect control and ±100 the full control effect; potency means the concentration at half of the fitted maximal effect; tags describe the fitted curve by direction and shape.

Row | Compound | Potency | activity change, negative = inhibition
1 | CCOC(=O)C1(CCOc2ccccc2)CCN(Cc2nccn2CC)CC1 | inconclusive [inhibitor, single point] | –
2 | CC(C)N1C(=O)c2ccccc2N(Cc2ccccc2)S1(=O)=O | – | inactive: -15.5%
3 | O=C1NC2c3c(I)sc(I)c3C(=O)C2O1 (stereo not drawn) | inconclusive [inhibitor, single point] | –
4 | CCOc1ccccc1C(=O)Nc1cccc(-c2ccc3nncn3n2)c1 | inconclusive [inhibitor, single point] | –
5 | Fc1ccc(OCCCCCCN2CCCC2)cc1 | inconclusive [inhibitor, single point] | –
6 | O=C1CC2(CCCCC2)Oc2ccc(F)cc21 | – | inactive: 8.35%
7 | CSCC[C@H](NC(=O)OC(C)(C)C)c1nnc(SCc2ccccc2)o1 | – | inactive: -5.38%
8 | OCC1(CO)COC(CCc2ccccc2)=N1 | – | inactive: 10.8%
9 | Oc1ccc(N=Nc2ccc3ccccc3c2)cc1 | inconclusive [inhibitor, single point] | –
10 | CN(CCOc1ccccc1)CC(=O)Nc1cc([N+](=O)[O-])ccc1Cl | inconclusive [inhibitor, single point] | –
11 | Cn1c(=O)c2c(nc(CN3CCc4ccccc4C3)n2Cc2ccccc2)n(C)c1=O | active: 12.6 µM | –
12 | COCCN(CCOC)Cc1cc(=O)oc2cc3c(cc12)CCC3 | inconclusive [inhibitor, partial curve] | –
13 | CCOC(=O)CSc1nc2ccccc2c(=O)n1Cc1ccco1 | active: 12.6 µM | –
14 | O=C(NCc1ccc(F)cc1)c1ccc(NC(=O)C2CCCO2)cc1 (stereo not drawn) | – | inactive: 17.9%
15 | CCOc1ccc(Cl)cc1CSc1ncn[nH]1 | inconclusive [inhibitor, partial curve] | –
16 | CC(=O)Nc1ccc(N2CCCCC2)c(C(=O)Nc2cccc(C)c2)c1 | inconclusive [inhibitor, partial curve] | –
17 | OC(COc1c(Br)cc(Br)cc1Br)CN1CCOCC1 (stereo not drawn) | inconclusive [inhibitor, single point] | –
18 | CCC(C)NCCOCCOc1ccccc1-c1ccccc1 (stereo not drawn) | active: 12.6 µM | –
19 | C/C(=N\NC(=O)CCCNc1ccc(C)cc1)c1ccccn1 | inconclusive [inhibitor, partial curve] | –
20 | O=C(CCl)N1CCN(S(=O)(=O)c2ccc3c(c2)OCCCO3)CC1 | inconclusive [inhibitor, single point] | –
21 | CCOC(=O)C1CCCN(c2c(NCCN(CC)c3ccccc3)c(=O)c2=O)C1 (stereo not drawn) | – | inactive: 1.17%
22 | COc1ccc(-c2c([C@H]3[C@H]4C=CC[C@@H](C)[C@@H]4C(=O)N3Cc3ccccc3)ccc3ccccc23)cc1 | active: 7.08 µM | –
23 | Cn1c2ccccc2c(=O)c2ccc(NCCc3cccs3)cc21 | active: 11.2 µM | –
24 | Cc1cc(C)nc(NN=C(c2ccccc2)c2ccccc2)n1 | inconclusive [inhibitor, partial curve] | –
25 | COc1ccc(OC)c(NC(=O)C2CCCN(S(=O)(=O)c3ccc(-n4cnnn4)cc3)C2)c1 (stereo not drawn) | inconclusive [inhibitor, partial curve] | –

Row | Compound | Potency | activity change, negative = inhibition
26 | CC(C)(C)n1nnnc1CN(Cc1cccnc1)Cc1ccccc1Cl | – | inactive: 7.93%
27 | CCC1CN(C(=O)N2CCC(C(=O)NCCc3ccc(OC)c(OC)c3)CC2)c2ccccc2O1 (stereo not drawn) | – | inactive: -22.3%
28 | O=C(NNC(=O)C1CCN(S(=O)(=O)c2ccccc2C(F)(F)F)CC1)c1ccccc1O | inconclusive [inhibitor, partial curve] | –
29 | Cc1cc(N2CCN(c3ccccc3)CC2)nc(-c2ccccc2O)n1 | inconclusive [inhibitor, partial curve] | –
30 | CCc1ccc(/C=N/NC(=O)c2cc(C3CC3)nc3ccccc23)s1 | active: 8.91 µM | –
31 | C#CCOCCOCCOCCNc1nc(N2CCN(C(=O)[C@H]([C@@H](C)CC)n3cc(CCCN=C(N)N)nn3)CC2)nc(N2CCN(C(=O)[C@H](C)n3cc(CCCN=C(N)N)nn3)CC2)n1 | – | inactive: -1.36% [at 8.37 µM]
32 | CC(CN1CCC(n2nccc2NC(=O)CCCc2ccccc2)CC1)c1ccccc1 (stereo not drawn) | inconclusive [inhibitor, partial curve] | –
33 | CCOc1ccc(CCNC(=O)COC(=O)Cc2c[nH]c3ccccc23)cc1OCC | inconclusive [inhibitor, single point] | –
34 | O=C(NCc1ccco1)c1sc2cc(F)ccc2c1Cl | – | inactive: -29.7%
35 | CC(=O)c1c(C)[nH]c(C(=O)COC(=O)c2cc(C)oc2C)c1C | inconclusive [inhibitor, partial curve] | –
36 | Cc1coc2cc3oc(=O)c4c(c3cc12)CCCC4 | inconclusive [inhibitor, full curve] | –
37 | O=C(N/N=C/c1ccncc1)c1nc(-c2ccccc2)n2c1CCCCC2 | – | inactive: -24.5%
38 | O=C(CCN1CCc2ccccc2C1)Nc1ccc(F)cc1 | – | inactive: 2.71%
39 | Cn1c(-c2c(N)n(CCCc3ccccc3)c3nc4ccccc4nc23)nc2ccccc21 | inconclusive [inhibitor, single point] | –
40 | CCn1c(C)cc(/C=C2\SC(=O)N(CC(=O)Nc3ccc(C)c(C)c3)C2=O)c1C | inconclusive [inhibitor, single point] | –
41 | Cc1cc(N2CCCC2)ccc1NC(=O)COc1ccccc1 | inconclusive [inhibitor, partial curve] | –
42 | Oc1ccc(N2CCN(C(=S)NCCc3ccccc3)CC2)cc1 | inconclusive [inhibitor, single point] | –
43 | Nc1nc(-c2cccnc2)nc2sc3c(c12)CCCC3 | inconclusive [inhibitor, single point] | –
44 | C=CCc1cc(Cl)ccc1OCCNCCOC | inconclusive [inhibitor, single point] | –
45 | Cc1ccn2cc(-c3cnoc3C)nc2c1 | – | inactive: 1.59%
46 | CC[N+](C)(C)CCN(Cc1ccc(Cl)cc1)c1ccccn1 | – | inactive: -1.97%
47 | CCOC(CNCc1cc(C)c2[nH]c3ccccc3c2c1C)OCC | active: 1.78 µM | –
48 | O=C1C(Cl)=C(N2CCC(C(=O)O)CC2)C(=O)c2ccccc21 | – | inactive: -2.56%
49 | CCn1c(=O)c(C(=O)CN2c3ccccc3CC2C)c(N)n(Cc2ccccc2)c1=O (stereo not drawn) | inconclusive [inhibitor, single point] | –
50 | CSc1ncccc1C(=O)OCc1ccc([N+](=O)[O-])cc1 | inconclusive [inhibitor, single point] | –

Row | Compound | Potency | activity change, negative = inhibition
51 | COc1ccc(NC(=O)Nc2cccc3ccccc23)cc1OC | – | inactive: -17.7%
52 | O=C(c1ccc(Br)c(S(=O)(=O)N2CCCCC2)c1)N1CCCCC1 | inconclusive [inhibitor, single point] | –
53 | CCCCN1Cc2cc(C(=O)c3cc(F)ccc3O)cnc2NC1=O | inconclusive [inhibitor, single point] | –
54 | CCN(CC)S(=O)(=O)c1ccc(-c2nnc3sc4cccc(C)c4n23)cc1 | inconclusive [inhibitor, single point] | –
55 | COc1ccc(-n2c(CCC(=O)O)ccc2-c2ccc(F)cc2)c(OC)c1 | – | inactive: 11.5%
56 | O=C(Nc1cccc(C(F)(F)F)c1)c1cccnc1 | – | inactive: -4.49%
57 | COC(=O)c1c(C(=O)OC)c(-c2ccc(Cl)cc2)n2c1CS(=O)(=O)C2 | – | inactive: 2.29%
58 | CCn1c(=NC(=O)CSC(C)=O)sc2ccccc21 | inconclusive [inhibitor, partial curve, poor fit] | –
59 | COc1cccc(NC(=O)Nc2ccc(Cc3ccncc3)cc2)c1 | inconclusive [inhibitor, partial curve] | –
60 | CS(=O)(=O)N1N=C(c2ccc(Br)cc2)CC1c1ccc2c(c1)OCO2 (stereo not drawn) | inconclusive [inhibitor, single point] | –
61 | Cc1ccccc1-c1nnc(SCc2ccc(F)cc2)o1 | inconclusive [inhibitor, single point] | –
62 | COc1ccc(C(=O)Nc2nc(C)c3cc4c(cc3n2)OCO4)cc1 | inconclusive [inhibitor, single point] | –
63 | CCOC(=O)C1(CCOc2ccccc2)CCN(Cc2cnc(C)s2)CC1 | inconclusive [inhibitor, partial curve] | –
64 | COc1ccc(-c2nn(C)c3sc(C(=O)NCCN(C)C)cc23)cc1OC | inconclusive [inhibitor, partial curve] | –
65 | O=C(Nc1cccc(S(=O)(=O)NC2=NCCC2)c1)c1ccc(C(F)(F)F)cc1 | inconclusive [inhibitor, partial curve] | –
66 | CCOc1ccccc1C(=O)NCC(=O)NNC(=O)CN(C)S(=O)(=O)c1ccc(Cl)cc1 | inconclusive [inhibitor, partial curve, poor fit] | –
67 | Cc1nc2ccccc2c(=O)n1NC(=O)C1CC1 | – | inactive: 10.8%
68 | COc1ccc(C(O)(CCC(C)C)C(CN2CCOCC2)c2ccccc2)cc1 (stereo not drawn) | inconclusive [inhibitor, single point] | –
69 | COc1ccc(Nc2nc(Cl)nc(Nc3ccc(OC)cc3OC)n2)c(OC)c1 | inconclusive [inhibitor, partial curve] | –
70 | CN(c1ccc(C(=O)N2CCN(Cc3ccccc3)CC2)cc1)S(=O)(=O)c1ccc(Cl)cc1 | active: 10 µM | –
71 | COc1cc(/C=N/n2cnn(Cc3ccccc3Cl)c2=S)cc(OC)c1OC | inconclusive [inhibitor, partial curve] | –
72 | CC(=O)Nc1ccc(Nc2ncnc3c2cnn3-c2cccc(C)c2)cc1 | inconclusive [inhibitor, full curve] | –
73 | Cc1cccc(C(=O)N/N=C/c2ccc(OC3CSC3)cc2)c1 | inconclusive [inhibitor, single point] | –

Source: PubChem BioAssay AID651820 (National Center for Advancing Translational Sciences (NCATS), 2012)
